According to the supplement of paper PMC10126150:
Values marked as one replicate rest on one cluster of the flow cell; about a third of the high ones do not repeat.

Test system: ATP
Assay: switch fluorescence ratio, 500 uM ATP over buffer (Cy3 cluster intensity, sum of 5 cycles each) (fold (ratio)); higher = stronger signal-on switching upon ATP binding; sequences stand for … in TCGTCGGCAGCGTCAGATGTGTATAAGAGACAGTTTTTTTTTTTTTTTTTTTTTTTTT…TC
Details: aptamer strand: ATP DNA aptamer (quencher-CACCTGGGGGAGTATTGCGGAGGAAGG + anchor), 100 nM annealed; ATP concentration: 500 uM; one replicate
How it was run: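 Five buffer/ATP imaging cycles were run on Cy3-labelled switching-strand clusters on a modified Illumina MiSeq flow-cell, with NaOH stripping and re-annealing between cycles. In each cycle, clusters annealed to 100 nM quencher-labelled ATP aptamer were imaged in selection buffer, then after 15 min with 500 uM ATP at 22 °C. Per cluster, the fluorescence ratio is summed target-cycle over summed buffer-cycle Cy3 intensity, averaged per switch-domain sequence. Only clusters within 100-1000 RFU were kept.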
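Note: ATP exposure 15 min at 22 °C before imaging.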

Sequence | switch fluorescence ratio
CTTTTCGTGG | 0.966
GGTTTTCTCT | 0.996
AAGATATCGC | 0.989
CGCCCAGTC | 1.56
GTTAACTGCA | 1.04
ATAGCATTTA | 1.05
ATGAGTTAGA | 1.09
ATCGCCATGG | 1.04
TATATGGTT | 0.985
GACGATTTTC | 0.976
AAACTTACGG | 1.32
TAAAGGGGCC | 0.955
CTAGGCAGTG | 1.03
AAAGGCGCGG | 0.992
CCGGACTTCT | 1.06
AGAGGCCACG | 1.02
AGAACGAGGC | 1.08
AGCGATATAG | 1.04
ATCCGCTTTT | 1.81
CGAACTGGCG | 1.14
GGGGGGGA | 1.06
GGGATAATGT | 1.01
CCCGGAGGTA | 1.06
CAGCCAGGGT | 1.23
CATCGTAAGA | 1.01
CATGATAGC | 1.02

Sequence | switch fluorescence ratio
GCTAAGTAAT | 1.04
TAAGAAATTG | 1.02
TCACTATCGA | 1.02
CCATGCTTGG | 0.95
CCACGGGATC | 1.23
CCGGTCGCAC | 3.18
GACTTTTGCG | 0.992
TTATTCCGTC | 1.05
TCGGGCTTAG | 1.02
GTTGACAGGT | 0.979
ACTGGCGCAC | 1.2
GTAGCTGGTT | 0.981
GCTGAGAAAG | 0.949
AGGTTAACTT | 0.99
TGAACATAGG | 1.02
GGAGGCAAAA | 2.53
TCAATTCACG | 0.987
CTGGCCCGTA | 1.01
TTGTCTTTA | 0.996
ACCTAGCAGG | 1.01
CGGGTGAATC | 1.04
ACCAGAAAGC | 1.1
ATGGCGCTGA | 1.01
TTACAGTAAC | 1.1
AAAGATCATG | 0.966
TGCCCCGTTT | 1.17

Sequence | switch fluorescence ratio
GGTAAAAAGA | 1.02
CGATTATGTT | 1.03
AAAGTCTTTT | 0.995
TTTGTAAGAG | 1.03
TCGGTGACTC | 0.961
TATATTTAAC | 1.01
TCACTTTCCG | 1.06
TGGATTGTGC | 0.871
TTGAGGTGTC | 1.43
ATTGCAGAGG | 0.983
CATAGACTC | 1.02
TCTATACAAA | 0.941
CAAATAGGAT | 0.979
TTTTTAGACA | 1.01
TCCGTTTCGA | 1.03
TTGAATGGTG | 1.03
TGTAGCTCTA | 1.02
ACCACCGGCT | 1.02
GTTGACTTCC | 2.03
TAATCGGTTC | 1.01
CTATCGATAA | 1
TACCCGGTCA | 1.01
CTGGTGCAAG | 1.33
TGCATGTGCC | 1.01
TTGTGTGGTC | 0.961
CTTACGAA | 1.04

Sequence | switch fluorescence ratio
CTACGACCTT | 1.23
ATTAATCGCC | 1.09
TAAGGAGAAA | 0.971
CATAGCACT | 1.16
AGTGGGGTCG | 0.967
CTACCGTTGA | 1.05
TGGGATCCGG | 1.02
ACGTTCCTTG | 1.19
CACTGGAGTA | 1.03
ATGGTTCGG | 0.964
AAAGATGTAT | 1.05
TATCTACGGT | 1.08
ATATTGTGT | 0.981
TATCTAGAAA | 1
ACTAGGTTGG | 1.03
TCTAGTGCAC | 1.03
GAGTTAGATT | 1
ACCGGCAATT | 1.2
ATTGTCATAC | 1.08
TGTGGGTGC | 0.992
CACAACGTAG | 1.02
TGTTATGAAG | 0.972
TAAGTCGCCG | 0.987
GATAGGTTTA | 1
TTGCAGTTCC | 1.05
CAGCATTTAC | 2.82

Sequence | switch fluorescence ratio
GAAAGGCTGG | 0.987
CTGCTAATAG | 1.83
CCGGCGTGGG | 1.07
AGTACTAGTA | 0.992
TTCGAAATAA | 1.05
CAGGGTCTGG | 0.972
AAATAATGTT | 1.02
CTGGATTCCC | 1.03
CACTTTAGAT | 1.02
AATTGCGTCG | 0.947
ATCGGGTCAG | 0.999
CATGAAAAAA | 1.09
CGTTGAACAA | 1
TTAGGGGTTA | 1.02
TCTCTCCGTA | 1.61
AATAAAGTAC | 1.31
GGCAGGCAGT | 0.99
CGATCCAGAT | 0.968
TCTTGTTTCA | 0.976
CATCCTTGCT | 1.11
GCAGTGTCTT | 1.02
TGGAATTCCA | 1.02
GGAGATTCTG | 1
ACTACAGGAT | 1.01
CAAACTCTTG | 1
TAACAGGGTG | 1.1

Sequence | switch fluorescence ratio
CTCGTCAATG | 1.49
TAATAACTAT | 1
ATCAAAAAAT | 0.981
TACCTGGGA | 1.01
GCTTGAGAGA | 1.04
CGGGTGAGAA | 1.02
GGAGTGCGCT | 1.02
AGGGTGTCAT | 1
TTGAAGTCGG | 1
GAAGGTATGC | 0.976
TGGTTAGCT | 0.997
ACAGGTTTCC | 0.954
GTGCTCCCAG | 1.06
GCTTAGTCCG | 1.07
GTATTGTTGG | 0.955
GTGTATTATA | 0.999
CCCTAAGATG | 1.04
TAAGCATTAA | 1.01
TGACTTAG | 1.05
TGTTCATGCT | 0.96
TAGGTTAT | 0.974
AAATAGAGCG | 1.03
AAAAAGGTAC | 1.61
TTGACGTCAT | 1.36
GGGCGTAAAC | 1.13
CGAAAAAACA | 1.11

Sequence | switch fluorescence ratio
CCTTCAAGA | 1.85
ATATTTTCC | 1.09
CCAGGGCATC | 1.11
CTGTAGCGTA | 1.15
TCGGCTTCAA | 0.979
GGCGTCTGGA | 1.04
CATGAGGAAA | 0.986
CCGTGGTCTG | 0.988
GTATAGGTGT | 1.03
CGGGAGATAT | 1.03
AATGTTCTAC | 1.02
TTTTAATGGC | 1.35
ATCTCGGGAT | 0.943
CGACAAGCTC | 1.53
GATCTAGACC | 0.982
TTAGCCGGTG | 0.968
TTGCAATATT | 1.53
TAGTGAGGGC | 0.94
GATTCGCTTA | 1.04
CAGCGGCTCC | 1.61
TTCCGTGTTT | 1.12
GGCATTGTTA | 0.975
TGCACTCTGT | 0.979
GTACAAAACG | 1.22
GGCGGGCGGA | 1.12
AAATCCTCTG | 1.16

Sequence | switch fluorescence ratio
AACGGCGGTA | 0.994
CTAAAGTTTT | 1.02
AGGATGGGTT | 0.998
CCTGAACGCG | 1.05
AGAAACGGAC | 1.42
GCATATCTG | 1.02
CAAACGTCT | 0.993
ACTACCGCTT | 1.32
GCAGGAAGTG | 0.997
TACACTGCAA | 2.25
TGTCGAGGTT | 0.944
TTCATTACAC | 0.984
TTAGGAT | 0.98
AATGGATGG | 0.989
GAAAACGTTT | 1.05
CATCGTTGAC | 1.11
TTCTGTGCA | 1.01
TGAATTTGGC | 0.946
TATCAATTGG | 1.01
